Values come from read counts of a selection and are noisy.
System: NB7
Experiment: fold depletion of shRNA, plasmid library share / infected cells without Dox share (9 days) (ratio); higher = more depleted after infection (more toxic, leaky expression from a Tet-inducible vector; NB7 is a neuroblastoma line without caspase-8)
Details: shRNA pool: CD95L ORF + CD95L 3'UTR + Venus libraries
Experimental: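 Pooled lethality screen in NB7 neuroblastoma cells infected with Dox-inducible pTIP shRNA libraries. The libraries tile every 21-mer of the Venus, CD95L or CD95 ORF / 3'UTR; each hairpin is the 21-nt sense sequence + CTCGAG loop + antisense. Cells were cultured 9 days with or without 100 ng/ml Dox. shRNA representation was measured by deep sequencing of the genomic inserts, normalised to the total reads per subpool and averaged over technical replicates. Fold depletion is the plasmid library share / infected cells without Dox share (mean of 2 biological replicates), and the -Dox/+Dox share ratio is the mean of 4 replicate pairings; higher values mean more depletion (toxicity).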
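Also: shRNA barcodes quantified by deep sequencing of PCR amplicons from cellular DNA, counts expressed as percent of each subpool, ratio averaged over two biological duplicates.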

Sequence | fold depletion of shRNA
AGAAGCATGAAAAAGCAGCTA | 2.36
AGAAGCGCGATCACATGGTCC | 2.95
AGAAGGCCTGGTCAAAGGAGG | 1.79
AGAATGTAGATATTGTGAAGT | 1.15
AGAATGTTGTATTCAGTGAGG | 0.713
AGACAAATGGAGGAATATGAC | 1.73
AGACACCTATGGAATTGTCCT | 0.729
AGACCACAGGGTTCAAAATGT | 3.58
AGACCCCAACGAGAAGCGCGA | 2.72
AGACCCGCGCCGAGGTGAAGT | 0.701
AGACGTTTTTCGGCTTATATA | 1.91
AGACTAGAGGCTTGCATAATA | 1.06
AGAGAAGCACTTTGGGATTCT | 0.911
AGAGAATGTAGATATTGTGAA | 0.871
AGAGAGAATGTAGATATTGTG | 0.892
AGAGAGGGAACCACAGCACAG | 0.506
AGAGATGTTTTGGGGACTCAT | 4.78
AGAGGCCAATGCCCCACTGGC | 1.02
AGAGGCTGAAAGAGGCCAATG | 1.36
AGAGGCTTGCATAATAAGCTA | 1.31
AGAGGGAACCACAGCACAGGC | 7.41
AGAGTATTTAGGCAGATTGAA | 1.88

Sequence | fold depletion of shRNA
AGATAAGCAAGAGAGATGTTT | 1.62
AGATACATGGTTGTGACCTGA | 3.22
AGATATTGTGAAGTACATATT | 0.518
AGATCCGCCACAACATCGAGG | 1.52
AGATGATGAGCTACTGCACTA | 2.61
AGATGCACACAGCATCATCTT | 1.08
AGATGTGCATTTTTGTGAAAT | 3.54
AGATGTTTTGGGGACTCATTT | 0.994
AGATTGAAAAGGACACCTTTT | 1.02
AGCAAATAGGCCACCCCAGTC | 1.3
AGCAAGAGAGATGTTTTGGGG | 1.52
AGCAAGGGCGAGGAGCTGTTC | 1.27
AGCACAGGCCTGTGTCTCCTT | 26.7
AGCACGACTTCTTCAAGTCCG | 1.55
AGCACTTTGGGATTCTTTCCA | 17.8
AGCAGAAGAACGGCATCAAGG | 2.28
AGCAGCACGACTTCTTCAAGT | 2.62
AGCAGCTACCAGGTGTTCTAC | 3.16
AGCAGCTACCTGGGGGCAGTG | 0.288
AGCAGTGCCAGCTCTCCCTGG | 4.94
AGCATCATCTTTGGAGAAGCA | 1.72
AGCATCTTCACTTCTAAATGC | 1.92

Sequence | fold depletion of shRNA
AGCATGTGTATTTCCAGTGCA | 1.01
AGCCACAAGGTCTACATGAGG | 5.07
AGCCAGACAAATGGAGGAATA | 3
AGCCAGATGCACACAGCATCA | 1.75
AGCCATCGGTGAAACTAACAG | 1.08
AGCGCACCATCTTCTTCAAGG | 1.11
AGCGCGATCACATGGTCCTGC | 1.16
AGCTACCTGGGGGCAGTGTTC | 9.45
AGCTACTAATGATGTTTTCCT | 1.98
AGCTACTGCACTACTGGGCAG | 0.578
AGCTCGCCGACCACTACCAGC | 1.35
AGCTGACCCTGAAGCTGATCT | 3.01
AGCTGAGGAAAGTGGCCCATT | 0.867
AGCTGATCTGCACCACCGGCA | 1.23
AGCTGCCCGTGCCCTGGCCCA | 0.723
AGCTGGACGGCGACGTAAACG | 1.06
AGCTGTTCACCGGGGTGGTGC | 1.18
AGGAAAATATGGGTTGCATTT | 3.64
AGGAACTCTAAGTATCCCCAG | 1.08
AGGAATATGACGGAAGAACAT | 6.08
AGGAATCTCAGACGTTTTTCG | 0.462
AGGACACCTTTTAACTCACCT | 3.46

Same assay, conditions: shRNA pool: CD95 ORF + CD95 3'UTR + Venus libraries

Sequence | fold depletion of shRNA
AGAAGCGCGATCACATGGTCC | 2.62
AGAAGCGTATGACACATTGAT | 2.06
AGAAGCTATGACCTTTTGCTG | 0.971
AGAAGGGAAGGAGTACACAGA | 1.44
AGAAGTGGAAATAAACTGCAC | 0.944
AGAATACCAAGTGCAGATGTA | 2.25
AGAATGACAATGTCCAAGACA | 1.39
AGAATGGTGTCAATGAAGCCA | 0.948
AGAATTTAAATAAGGCTCTAC | 1.29
AGACAAAGCCCATTTTTCTTC | 1.08
AGACACAGCAGAACAGAAAGT | 1.24
AGACCCCAACGAGAAGCGCGA | 2.12
AGACCCGCGCCGAGGTGAAGT | 0.889
AGACTATCATCCTCAAGGACA | 2.9
AGACTCAGAACTTGGAAGGCC | 1.07
AGACTGCCCTTAGAAATTCTA | 2.04
AGACTGCGTGCCCTGCCAAGA | 1.23
AGACTGTTACTACAGTTGAGA | 0.896
AGAGAAAATTCAGACTATCAT | 1.2
AGAGAAAGGAAGTACAGAAAA | 0.599
AGAGAAAGTAGCTTTGTGACA | 2.6
AGAGATTTTACCATATTTCTA | 1.03
AGAGCCAACATATTTGTAGAT | 3.23

Sequence | fold depletion of shRNA
AGAGGATGAAAGATTAAGATT | 0.782
AGAGTATTACTAGAGCTTTGC | 1.83
AGAGTGAAAAACAACAAATTC | 1.12
AGATACCTGGAACCACCTAAA | 2.25
AGATACTAACTGCTCTCAGAG | 1.94
AGATAGTTATAAACTGAAGCA | 1.08
AGATCAAGAATGACAATGTCC | 1.15
AGATCATATTTATGTAAAGTA | 0.879
AGATCCGCCACAACATCGAGG | 1.7
AGATCTAACTTGGGGTGGCTT | 8.78
AGATCTCAAAAAAGCCAATCT | 2.44
AGATGAGATCAAGAATGACAA | 2.1
AGATGATAAAATAGATTCTTA | 0.7
AGATGTAAACCAAACTTTTTT | 0.862
AGATGTAGATTGTGTGATGAA | 1.16
AGATTAAGATTATGCTCTGGC | 1.31
AGATTATCGTCCAAAAGTGTT | 1.23
AGATTATGCTCTGGCATCTAA | 2.69
AGATTCTCCTTACTACTATCC | 1.73
AGATTCTTAATAGCTGGCTGT | 1.24
AGATTCTTATTTTTCCCCCAC | 1.63
AGATTGTGTGATGAAGGACAT | 7.74
AGATTTAAGATTCTCCTTACT | 1.69

Sequence | fold depletion of shRNA
AGATTTTACCATATTTCTAAA | 0.684
AGATTTTTAATATCTCATGAT | 0.78
AGCAAAGACCCCAACGAGAAG | 1.01
AGCAACACCAAGTGCAAAGAG | 1.55
AGCAATGGTAAAATCATCATC | 3.42
AGCACAGAAAGGAAAACCAAG | 0.771
AGCACGACTTCTTCAAGTCCG | 1.15
AGCAGAACACCCCCATCGGCG | 1.36
AGCAGAACAGAAAGTTCAACT | 1.34
AGCAGATACCTGGAACCACCT | 4.06
AGCAGCACGACTTCTTCAAGT | 3.33
AGCAGGAGAGTATTACTAGAG | 1.17
AGCATTTTGAGCAGGAGAGTA | 2.76
AGCCAAAATAGATGAGATCAA | 1.18
AGCCAACATATTTGTAGATTT | 0.624
AGCCAATCTTTGTACTCTTGC | 2.91
AGCCACAACGTCTATATCACC | 4.39
AGCCCTGTCCTCCAGGTGAAA | 2.89
AGCCTGGTTTGGAGATACTAA | 1.05
AGCGCACCATCTTCTTCAAGG | 0.762
AGCGCGATCACATGGTCCTGC | 0.806
AGCGCTGAAGAGCCAACATAT | 5.79
AGCGTATGACACATTGATTAA | 0.928

Sequence | fold depletion of shRNA
AGCGTGTCCGGCGAGGGCGAG | 1.51
AGCTACCAGTCCGCCCTGAGC | 0.386
AGCTAGGGACTGCACAGTCAA | 0.697
AGCTATGACCTTTTGCTGAAA | 1.09
AGCTCGCCGACCACTACCAGC | 0.657
AGCTGAAGGGCATCGACTTCA | 0.92
AGCTGACCCTGAAGCTGATCT | 1.93
AGCTGATCTGCACCACCGGCA | 1.44
AGCTGCCCGTGCCCTGGCCCA | 1.38
AGCTGGACGGCGACGTAAACG | 0.611
AGCTGGAGTACAACTACAACA | 2.47
AGCTGGCTGTAAATACTGCTT | 2.61
AGCTGTTCACCGGGGTGGTGC | 0.997
AGCTTATACATAGCAATGGTA | 1.27
AGCTTTGCCACCTCTCCATTT | 0.633
AGGAAAACCAAGGTTCTCATG | 1.01
AGGAAAGCTAGGGACTGCACA | 27
AGGAAGACTGTTACTACAGTT | 1.53
AGGAAGTACAGAAAACATGCA | 1.74
AGGAATGCACACTCACCAGCA | 0.905
AGGAATTGCTCTTGTCATACC | 1.97
AGGACATGGCTTAGAAGTGGA | 1.26
AGGACATTACTAGTGACTCAG | 1.23
